In publication PMC4336329 (PLoS ONE, 2015):
Hit rate of the full screen: of about 310,000 compounds, about 14,000 (4.5%) showed an effect of 50% or more. The effect is printed as a negative number. This is one part of the list.

target: human ether-à-go-go-related gene (hERG) potassium channel (human, UniProt Q12809); experiment: primary screen, population patch clamp on CHO cells stably expressing hERG
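Also: peak tail current of the secondary pulse compared with the same well before compound.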

human ether-à-go-go-related gene (hERG) potassium channel, sequence (Q12809 whole entry, looked up): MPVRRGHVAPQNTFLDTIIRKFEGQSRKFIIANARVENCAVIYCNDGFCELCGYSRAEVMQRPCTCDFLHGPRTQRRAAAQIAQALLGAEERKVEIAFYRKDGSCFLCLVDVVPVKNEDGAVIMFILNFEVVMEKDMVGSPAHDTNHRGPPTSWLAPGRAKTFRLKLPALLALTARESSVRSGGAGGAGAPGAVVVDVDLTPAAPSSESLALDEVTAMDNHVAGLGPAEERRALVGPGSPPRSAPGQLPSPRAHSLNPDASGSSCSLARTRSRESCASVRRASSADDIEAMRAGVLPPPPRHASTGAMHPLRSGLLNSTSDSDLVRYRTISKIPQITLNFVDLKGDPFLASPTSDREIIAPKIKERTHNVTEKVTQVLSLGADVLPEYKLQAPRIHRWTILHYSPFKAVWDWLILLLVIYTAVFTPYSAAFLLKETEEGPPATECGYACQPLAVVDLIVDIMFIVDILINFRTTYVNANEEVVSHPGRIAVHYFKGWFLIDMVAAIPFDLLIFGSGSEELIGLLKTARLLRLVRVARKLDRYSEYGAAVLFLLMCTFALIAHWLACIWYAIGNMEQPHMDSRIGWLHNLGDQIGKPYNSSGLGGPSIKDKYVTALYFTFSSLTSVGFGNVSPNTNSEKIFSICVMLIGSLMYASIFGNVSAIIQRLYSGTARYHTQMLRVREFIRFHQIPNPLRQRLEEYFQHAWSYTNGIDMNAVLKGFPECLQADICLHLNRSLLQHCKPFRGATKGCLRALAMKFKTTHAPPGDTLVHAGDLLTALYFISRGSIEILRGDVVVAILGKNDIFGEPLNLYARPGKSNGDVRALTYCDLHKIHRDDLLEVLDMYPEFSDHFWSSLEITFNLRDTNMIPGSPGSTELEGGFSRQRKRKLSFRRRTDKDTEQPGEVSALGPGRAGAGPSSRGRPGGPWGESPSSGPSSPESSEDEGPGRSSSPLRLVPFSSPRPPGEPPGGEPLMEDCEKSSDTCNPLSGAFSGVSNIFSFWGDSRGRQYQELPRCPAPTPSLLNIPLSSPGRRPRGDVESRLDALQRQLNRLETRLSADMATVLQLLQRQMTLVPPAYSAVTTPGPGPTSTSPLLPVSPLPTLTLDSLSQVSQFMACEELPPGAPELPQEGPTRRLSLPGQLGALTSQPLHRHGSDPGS

Compound | hERG current change (%, negative = inhibition) at 10uM
C#CCOCCOCCOCCNc1nc(N2CCN(C(=O)[C@H](Cc3cc4ccccc4[nH]3)n3cc(C(N)CC(C)C)nn3)CC2)nc(N2CCN(C(=O)[C@H](CCC(=O)O)n3cc(C(N)[C@H](C)CC)nn3)CC2)n1.Cl (stereo partly drawn) | 8.79%
O=C(NC(=S)NC1CCS(=O)(=O)C1)c1cccs1 (stereo not drawn) | 8.22%
CCOCCCNC(=O)C(NC(=O)CNC(=O)c1ccccc1)c1ccccc1 (stereo not drawn) | 21.9%
CN(C)C(=O)CSc1cnc2ccccc2n1 | 5.74%
CCC1COC(c2cccn2Cc2ccc(Cl)cc2)=N1 (stereo not drawn) | -5.09%
O=C(CN(Cc1ccccc1)S(=O)(=O)c1ccccc1)N/N=C/c1ccccc1[N+](=O)[O-] | -12.5%
CN(C)CCn1c(=S)[nH]c2ccccc2c1=O | 5.8%
O=C(CNC(=S)N(Cc1ccccc1F)C1CCCCC1)NC1CC1 | -4.74%
COc1ccc(N2CCN(C(=O)c3cc(=O)c4cc(C)ccc4o3)CC2)cc1 | -38.1%
CC(C)CNS(=O)(=O)c1cc(C(=O)OCC(=O)c2ccc3c(c2)OCCO3)c(Cl)cc1Cl | 21%
COc1ccc(C2C(C(=O)N3CCN(c4ccccc4)CC3)c3ccccc3C(=O)N2C)cc1OC (stereo not drawn) | -15.7%
CCN(CC)CCNC(=O)c1ccc(NC(=O)/C=C/c2cc(OC)c(OC)c(OC)c2)cc1.Cl | 9.84%
CCOC(=O)CSc1nc2cc(C)cc(C)c2cc1C#N | 14.1%
COc1ccc(NC(=O)C2(c3ccc(NC(=O)c4ccc(OC)c(OC)c4)cc3)CCCC2)cc1 | -4.76%
CC1CCC(NC(=O)c2ccc(-n3cncn3)c([N+](=O)[O-])c2)CC1 (stereo not drawn) | -17.6%
CC(C)(C)C(=O)Nc1sc2c(c1C#N)CCN(Cc1ccccc1)C2.Cl | 1.78%
CCc1cccc(OCCCn2ccnc2)c1.O=C(O)C(=O)O | -25.7%
CCn1cc(C2=NC(C)CO2)c2ccccc21 (stereo not drawn) | -10.1%
CCCCCCc1nc2ccccc2c(=O)n1NC(=O)c1c(O)c2c(n(CC(C)C)c1=O)CCCC2 | 9.82%
CN(CC(=O)Nc1ccc(Cl)c(C(F)(F)F)c1)C(=O)c1ccc(OCC2CCCO2)cc1 (stereo not drawn) | -4.78%
O=C(O)c1ccc(-c2nc(-c3ccccc3Cl)cs2)cc1 | 17.6%
O=C(NCc1ccc2c(c1)CCO2)Nc1cccc(C(F)(F)F)c1 | 12.6%
Cc1cc(C)c(C#N)c(SC(C(=O)NC(C)(C)C)c2ccccc2)n1 (stereo not drawn) | 7.75%
CN(C)C(=O)c1cc(C(=O)c2ccc(F)cc2Cl)c[nH]1 | 11.4%
CCOc1ccc(NC(=O)CN2C(=O)COc3ccc(S(=O)(=O)N4CCCCC4)cc32)cc1 | 6.34%
COC(=O)c1sc2ccc(C)cc2c1C(=O)OC | 1.79%
CCOC(=O)c1c(C)[nH]c(C(=O)CSc2nc(C)cc(C)n2)c1C | 12.3%

Compound | hERG current change (%, negative = inhibition) at 10uM
O=C(NC1CCCc2ccccc21)c1ccc(=O)[nH]c1 (stereo not drawn) | -4.97%
CC(C)C(=O)N=C1SC2CS(=O)(=O)CC2N1Cc1ccccc1 (stereo not drawn) | 2.66%
CCC(=O)NCCc1nc2cc(NC(=O)c3ccccc3OC)ccc2n1C | 4.58%
O=[N+]([O-])c1cccnc1Sc1ccc(F)cc1 | -19.4%
O=C(CSC1=Nc2ccccc2C2=NC(c3ccccc3)C(=O)N12)NCC1CCCO1 (stereo not drawn) | -24.3%
CCOC(=O)C(Cc1cc(C(C)=O)ccc1OCC)C(=O)OCC | -6.67%
CC1CC(=O)C(C2c3ccccc3CCN2C(=O)CCl)C(=O)C1 (stereo not drawn) | 2.58%
CCOc1ccc(CCNC(=O)COC(=O)COc2ccc(C#N)cc2)cc1OCC | -10.5%
CCOc1ccccc1C(=O)OCC(=O)Nc1cc(S(=O)(=O)N2CCOCC2)ccc1C | -15.1%
O=C(COC(=O)c1ccc2c(=O)n3c(nc2c1)CCC3)NC1CCS(=O)(=O)C1 (stereo not drawn) | 3.16%
O=C(N/C(=C\c1cn(-c2ccccc2)nc1-c1ccc(Cl)cc1)C(=O)N1CCOCC1)c1ccccc1 | 5.42%
Cc1c(Cl)cccc1NC(=O)CCCN1C(=O)CCC1=O | 19.7%
Cc1ccc(NC(=O)N2CCCC2C(=O)NCc2ccccc2Cl)cc1 (stereo not drawn) | 11.7%
CC(=O)Nc1ccc2nc(CN3CCN(Cc4ccc(F)cc4)C(CCO)C3)ccc2c1 (stereo not drawn) | -28.8%
Cc1cccc2cccnc12 | 11.6%
CCCN1C(=O)c2ccccc2NC1c1ccc(Br)cc1 (stereo not drawn) | -18.1%
COCCCNC(=O)c1c(N)n(-c2ccc3c(c2)OCO3)c2nc3ccccc3nc12 | 9.77%
CC1C(=O)Nc2ccc(S(=O)(=O)N3CCN(c4cccc(Cl)c4)CC3)cc2NC1=O (stereo not drawn) | -21.8%
CCCN(CCC)CC(O)CN(c1ccccc1)S(=O)(=O)c1ccc(C)cc1 (stereo not drawn) | -80.3%
CC(=O)Nc1ccc(S(=O)(=O)NNC(=O)COc2ccc(C)cc2)cc1 | 8.04%
Cc1cc(C)cc(C(=O)NCC(=O)OCC(=O)Nc2ccc(C)cc2Br)c1 | -17.2%
CN(Cc1ccccc1)C(=O)COC(=O)CCNC(=O)c1ccccc1Cl | 0.088%
Cc1ccc(C)c(N2CCN(C(=O)Cn3c(=O)oc4cc(S(=O)(=O)N5CCCC5)ccc43)CC2)c1 | -15%
O=C(c1cccc2ccccc12)C1CCCN(C(=O)CCCn2cncn2)C1 (stereo not drawn) | -20.1%
CCCC1CCC(c2ccc(OCC)cc2)=CC1=O (stereo not drawn) | 11.8%
CCCc1cc(=O)[nH]c(SCC(=O)c2ccc3c(c2)OCCO3)n1 | -9.13%
COc1ccc(CNC(=O)c2noc3c2CCCCC3)cc1 | -11.6%
